In patent US20220389066A1 (Affibody, published 2022):

Key:
[1] = target: T1, HMGB1(disulfide), disulfide linked form of full-length HMGB1 (HMGB1C23-C45C106h) (rat, UniProt P63159 1-215, disulfide C23-C45; C106 reduced); assay: SPR (Biacore 2000); Z-ABD captured on HSA, analyte injected; heterogeneous ligand parallel reactions model, KD2
T1 construct: unlabelled in Biacore and Attana; also called b-HMGB1(disulfide)
T1 sequence: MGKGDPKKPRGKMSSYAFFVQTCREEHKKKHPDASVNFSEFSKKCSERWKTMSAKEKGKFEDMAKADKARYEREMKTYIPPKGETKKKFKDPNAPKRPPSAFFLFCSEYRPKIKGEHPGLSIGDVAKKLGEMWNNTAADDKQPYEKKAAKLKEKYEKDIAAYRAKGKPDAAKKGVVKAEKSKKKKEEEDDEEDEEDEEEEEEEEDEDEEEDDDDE
Procedure: (§1) Biacore kinetic and specificity analysis: The interactions of the A-box binding Z-ABD polypeptides ZA3812 (SEQ ID NO:35) and ZA3914 (SEQ ID NO:36) with four different HMGB1 variants were analyzed in a Biacore instrument by injecting various concentrations of HMGB1 variants over a surface containing ZA3812 and ZA3914, respectively, captured on immobilized HSA. […] In addition, the interaction of the B-box binding Z-ABD polypeptide ZA3975 (SEQ ID NO:37) was analyzed for binding to HMGB1(red) in the same manner.

[2] = target: T1, HMGB1(disulfide), disulfide linked form …; assay: SPR (Biacore 2000); Z-ABD captured on HSA, analyte injected; heterogeneous ligand parallel reactions model, ka1
Procedure: as §1

[3] = target: T2, boxA(disulfide), disulfide linked form of A-box domain of HMGB1 (human, UniProt P09429 1-89, disulfide C23-C45); assay: SPR (Biacore 2000); Z-ABD captured on HSA, analyte injected; 1:1 Langmuir model
T2 construct: also called b-boxA(disulfide)
T2 sequence: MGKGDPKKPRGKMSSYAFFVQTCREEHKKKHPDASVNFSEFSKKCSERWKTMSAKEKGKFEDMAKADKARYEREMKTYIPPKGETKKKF
Procedure: as §1

[4] = target: T3, GST-boxA(red), reduced form of A-box domain of HMGB1 with N-terminal GST tag (human, cysteines reduced); assay: SPR (Biacore 2000); Z-ABD captured on HSA, analyte injected, 2 mM DTT; 1:1 Langmuir model
T3 construct: Used biotinylated (b-GST-boxA(red)) in ELISA; also called b-GST-boxA(red)
Procedure: as §1

[5] = target: T4, HMGB1(red), fully reduced form of full-length HMGB1 (HMGB1C23hC45hC106h) (rat, UniProt P63159 1-215, all cysteines reduced (C23h, C45h, C106h)); assay: as above
T4 construct: Produced by HMGBiotech; also called HMGB1(reduced); b-HMGB1(red)
T4 sequence: T1 sequence
Procedure: as §1

[6] = target: T1, HMGB1(disulfide), disulfide linked form …; assay: SPR (Biacore 2000); Z-ABD captured on HSA, analyte injected; heterogeneous ligand parallel reactions model, KD1
Procedure: (§2) Biacore kinetic and specificity analysis: Kinetic constants (kₐ and kd) and affinities (KD) for HMGB1(red), HMGB1(disulfide), boxA(disulfide) and GST-boxA(red) were determined for the A-box binding Z-ABD polypeptides ZA3812 (SEQ ID NO:35) and ZA3914 (SEQ ID NO:36) (see Example 2), as well as for the HMGB1(red) interaction with the B-box binding polypeptide ZA3975, using a Biacore 2000 instrument (GE Healthcare).
(§3) The experiment was performed as a capture assay, in which human serum albumin (HSA, Novozymes, cat. no. 230-005) was immobilized on the carboxylated dextran layer of one CM5 chip surface (GE Healthcare, cat. no. BR100012) to immobilization levels of approximately 3000 RU. The immobilization was performed using amine coupling chemistry according to the manufacturer's protocol and using HBS-EP (GE Healthcare, cat. no. BR100188) as running buffer. In a first set of experiments, Z-ABD polypeptides were analyzed under non-reducing conditions. One flow cell surface was activated and deactivated for use as blank during ligand and analyte injections. In the kinetic experiment, HBS-EP was used as running buffer and the flow rate was 30 μl/min. The ligand, i.e. the Z-ABD polypeptide, was diluted in HBS-EP buffer to a concentration of 30 nM and injected during 2 min. […]

[7] = target: T1, HMGB1(disulfide), disulfide linked form …; assay: SPR (Biacore 2000); Z-ABD captured on HSA, analyte injected; heterogeneous ligand parallel reactions model, kd2
Procedure: as §1

[8] = target: T5, human serum albumin (HSA) (human, UniProt P02768 25-609); assay: SPR (Biacore 2000); capture on immobilized HSA through the ABD moiety
T5 construct: Immobilized on sensor chips to capture ABD (PP013) fusions
T5 sequence (P02768 25-609 limits assumed): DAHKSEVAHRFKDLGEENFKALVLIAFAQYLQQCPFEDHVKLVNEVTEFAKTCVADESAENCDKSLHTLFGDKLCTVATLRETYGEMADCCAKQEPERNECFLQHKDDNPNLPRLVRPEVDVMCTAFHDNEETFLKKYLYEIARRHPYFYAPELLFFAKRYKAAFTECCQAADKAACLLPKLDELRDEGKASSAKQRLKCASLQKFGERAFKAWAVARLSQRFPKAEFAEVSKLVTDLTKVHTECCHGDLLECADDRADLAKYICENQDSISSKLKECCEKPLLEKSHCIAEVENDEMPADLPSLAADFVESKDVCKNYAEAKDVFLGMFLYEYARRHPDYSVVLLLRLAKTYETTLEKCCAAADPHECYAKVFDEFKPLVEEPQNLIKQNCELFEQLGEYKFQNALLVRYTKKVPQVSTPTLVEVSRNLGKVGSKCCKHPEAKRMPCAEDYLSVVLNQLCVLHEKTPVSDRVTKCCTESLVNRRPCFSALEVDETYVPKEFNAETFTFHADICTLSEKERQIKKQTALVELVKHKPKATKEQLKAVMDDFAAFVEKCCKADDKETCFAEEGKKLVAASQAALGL

[9] = target: T1, HMGB1(disulfide), disulfide linked form …; assay: SPR (Biacore 2000); Z-ABD captured on HSA, analyte injected; heterogeneous ligand parallel reactions model, ka2
Procedure: as §2, §3

[10] = target: T1, HMGB1(disulfide), disulfide linked form …; assay: SPR (Biacore 2000); Z-ABD captured on HSA, analyte injected; heterogeneous ligand parallel reactions model, kd1
Procedure: as §1

B1: ZA3914 ([ZH 28]-ASGS-PP013) (designed binder)
chain: AEAKYAKEAWQAMEEILWLPNLTNTQQLAFIYKLEDDPSQSSELLSEAKKLNDSQAPKASGSLAEAKEAANAELDSYGVSDFYKRLIDKAKTVEGVEALKDAILAALP
Question: Which Kd [1] does the source give for B1 here?
Answer: 6.8 nM

Question: What about the kon [2] of the same binder?
Answer: 180000 M⁻¹ s⁻¹

Question: And the Kd [3]?
Answer: 0.9 nM

Question: What about the koff [3] of the same binder?
Answer: 0.00015 s⁻¹

Question: What about the kon [3] of the same binder?
Answer: 170000 M⁻¹ s⁻¹

Question: What about the Kd [4] of the same binder?
Answer: 0.8 nM

Question: And the koff [4]?
Answer: 0.0001 s⁻¹

Question: What about the kon [4] of the same binder?
Answer: 120000 M⁻¹ s⁻¹

Question: And the Kd [5]?
Answer: 6.1 nM

Question: What about the koff [5] of the same binder?
Answer: 0.0011 s⁻¹

Question: And the kon [5]?
Answer: 180000 M⁻¹ s⁻¹

Question: What about the Kd [6] of the same binder?
Answer: 140 nM

Question: And the koff [7]?
Answer: 9.5e-05 s⁻¹

Question: Does B1 bind [8]?
Answer: binds

Question: What about the kon [9] of the same binder?
Answer: 14000 M⁻¹ s⁻¹

Question: And the koff [10]?
Answer: 0.025 s⁻¹
